Our source for the binding values is PMC8214628.

Sequences of proteins named here, by UniProt entry; tags and fusion partners are left off. Residues count along the entry.
UniProt P07954, residues 45-510: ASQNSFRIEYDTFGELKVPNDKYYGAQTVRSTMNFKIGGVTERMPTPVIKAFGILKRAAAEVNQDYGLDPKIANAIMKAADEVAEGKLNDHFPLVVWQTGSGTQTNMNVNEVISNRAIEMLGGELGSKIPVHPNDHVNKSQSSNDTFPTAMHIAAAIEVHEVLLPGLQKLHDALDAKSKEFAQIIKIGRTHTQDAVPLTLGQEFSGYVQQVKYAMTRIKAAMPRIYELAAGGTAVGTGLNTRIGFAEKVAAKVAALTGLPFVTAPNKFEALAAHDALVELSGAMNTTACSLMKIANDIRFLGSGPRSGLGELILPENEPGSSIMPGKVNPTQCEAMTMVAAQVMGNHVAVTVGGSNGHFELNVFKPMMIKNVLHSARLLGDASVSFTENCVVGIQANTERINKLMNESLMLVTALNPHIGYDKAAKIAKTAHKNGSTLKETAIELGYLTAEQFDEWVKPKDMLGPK
UniProt P42230: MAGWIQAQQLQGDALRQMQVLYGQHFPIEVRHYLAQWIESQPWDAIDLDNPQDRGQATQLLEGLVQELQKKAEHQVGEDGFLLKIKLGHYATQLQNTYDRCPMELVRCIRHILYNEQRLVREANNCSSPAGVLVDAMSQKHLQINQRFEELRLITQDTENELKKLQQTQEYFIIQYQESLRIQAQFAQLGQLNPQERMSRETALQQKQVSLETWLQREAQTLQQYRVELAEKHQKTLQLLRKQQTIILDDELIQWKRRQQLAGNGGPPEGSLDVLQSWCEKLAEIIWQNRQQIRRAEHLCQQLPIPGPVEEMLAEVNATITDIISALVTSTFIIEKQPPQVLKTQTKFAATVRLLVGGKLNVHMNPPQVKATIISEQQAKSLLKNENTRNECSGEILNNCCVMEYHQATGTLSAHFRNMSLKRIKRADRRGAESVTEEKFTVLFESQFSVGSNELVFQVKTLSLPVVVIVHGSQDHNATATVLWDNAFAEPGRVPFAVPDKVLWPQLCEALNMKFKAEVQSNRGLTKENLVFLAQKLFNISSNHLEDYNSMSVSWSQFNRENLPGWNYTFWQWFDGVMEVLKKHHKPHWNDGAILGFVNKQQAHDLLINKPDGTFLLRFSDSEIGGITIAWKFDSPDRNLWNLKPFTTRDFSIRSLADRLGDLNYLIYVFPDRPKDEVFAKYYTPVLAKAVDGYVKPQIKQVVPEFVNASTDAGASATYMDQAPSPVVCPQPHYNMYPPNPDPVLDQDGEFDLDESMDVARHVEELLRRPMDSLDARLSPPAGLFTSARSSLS
UniProt P42229: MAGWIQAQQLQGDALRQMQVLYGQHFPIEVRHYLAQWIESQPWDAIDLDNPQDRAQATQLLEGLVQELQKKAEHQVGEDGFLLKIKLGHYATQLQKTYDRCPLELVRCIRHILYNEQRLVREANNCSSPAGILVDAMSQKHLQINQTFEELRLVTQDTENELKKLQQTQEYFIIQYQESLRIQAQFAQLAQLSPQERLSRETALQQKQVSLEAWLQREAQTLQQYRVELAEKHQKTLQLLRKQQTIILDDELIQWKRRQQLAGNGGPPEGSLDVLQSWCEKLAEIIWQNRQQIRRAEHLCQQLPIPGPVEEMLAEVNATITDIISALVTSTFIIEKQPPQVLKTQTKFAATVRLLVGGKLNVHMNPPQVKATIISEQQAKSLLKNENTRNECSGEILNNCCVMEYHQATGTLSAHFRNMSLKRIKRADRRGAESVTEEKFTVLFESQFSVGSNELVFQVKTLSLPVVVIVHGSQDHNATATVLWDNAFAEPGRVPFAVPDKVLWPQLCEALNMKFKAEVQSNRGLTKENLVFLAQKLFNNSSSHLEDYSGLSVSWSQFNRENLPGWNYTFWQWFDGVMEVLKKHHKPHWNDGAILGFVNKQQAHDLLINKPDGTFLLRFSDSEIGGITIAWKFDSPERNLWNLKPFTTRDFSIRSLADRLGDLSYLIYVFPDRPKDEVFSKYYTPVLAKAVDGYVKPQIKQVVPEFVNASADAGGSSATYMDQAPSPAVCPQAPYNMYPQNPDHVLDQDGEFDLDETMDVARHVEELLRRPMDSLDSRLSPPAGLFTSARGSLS

For one assay, the target named is T1, FLAG-IDH2 (UniProt P48735).
T1 sequence: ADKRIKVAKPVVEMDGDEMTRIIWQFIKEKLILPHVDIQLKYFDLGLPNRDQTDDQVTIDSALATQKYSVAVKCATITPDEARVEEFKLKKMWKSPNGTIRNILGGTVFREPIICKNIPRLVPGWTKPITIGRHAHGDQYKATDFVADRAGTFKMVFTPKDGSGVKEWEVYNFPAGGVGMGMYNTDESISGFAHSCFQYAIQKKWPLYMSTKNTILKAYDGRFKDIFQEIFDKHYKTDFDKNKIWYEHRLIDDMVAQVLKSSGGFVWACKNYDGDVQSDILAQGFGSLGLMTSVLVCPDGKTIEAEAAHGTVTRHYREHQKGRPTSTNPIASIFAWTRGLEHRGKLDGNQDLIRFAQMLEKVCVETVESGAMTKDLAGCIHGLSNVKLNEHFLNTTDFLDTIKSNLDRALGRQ
Briefly: co-IP; 293T cells co-transfected with Myc-STAT5A and FLAG-tagged proteins; lysed in 0.1% NP40 buffer; anti-FLAG agarose beads, 4 °C overnight; eluted with FLAG peptide; blotted for Myc and FLAG.

Another assay addresses T2, FLAG-ALDOA (UniProt P04075).
T2 sequence: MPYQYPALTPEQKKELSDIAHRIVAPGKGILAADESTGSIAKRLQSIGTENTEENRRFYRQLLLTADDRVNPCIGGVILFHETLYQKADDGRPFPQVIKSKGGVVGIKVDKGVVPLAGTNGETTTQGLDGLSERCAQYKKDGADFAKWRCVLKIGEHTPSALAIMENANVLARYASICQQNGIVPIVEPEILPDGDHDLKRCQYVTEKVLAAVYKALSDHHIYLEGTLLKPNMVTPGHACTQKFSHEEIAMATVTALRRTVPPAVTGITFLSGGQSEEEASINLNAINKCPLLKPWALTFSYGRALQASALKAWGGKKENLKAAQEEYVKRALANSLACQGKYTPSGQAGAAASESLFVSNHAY
The description is as above.

Another assay has as its target T3, FLAG-ACO2 (UniProt Q99798).
T3 sequence: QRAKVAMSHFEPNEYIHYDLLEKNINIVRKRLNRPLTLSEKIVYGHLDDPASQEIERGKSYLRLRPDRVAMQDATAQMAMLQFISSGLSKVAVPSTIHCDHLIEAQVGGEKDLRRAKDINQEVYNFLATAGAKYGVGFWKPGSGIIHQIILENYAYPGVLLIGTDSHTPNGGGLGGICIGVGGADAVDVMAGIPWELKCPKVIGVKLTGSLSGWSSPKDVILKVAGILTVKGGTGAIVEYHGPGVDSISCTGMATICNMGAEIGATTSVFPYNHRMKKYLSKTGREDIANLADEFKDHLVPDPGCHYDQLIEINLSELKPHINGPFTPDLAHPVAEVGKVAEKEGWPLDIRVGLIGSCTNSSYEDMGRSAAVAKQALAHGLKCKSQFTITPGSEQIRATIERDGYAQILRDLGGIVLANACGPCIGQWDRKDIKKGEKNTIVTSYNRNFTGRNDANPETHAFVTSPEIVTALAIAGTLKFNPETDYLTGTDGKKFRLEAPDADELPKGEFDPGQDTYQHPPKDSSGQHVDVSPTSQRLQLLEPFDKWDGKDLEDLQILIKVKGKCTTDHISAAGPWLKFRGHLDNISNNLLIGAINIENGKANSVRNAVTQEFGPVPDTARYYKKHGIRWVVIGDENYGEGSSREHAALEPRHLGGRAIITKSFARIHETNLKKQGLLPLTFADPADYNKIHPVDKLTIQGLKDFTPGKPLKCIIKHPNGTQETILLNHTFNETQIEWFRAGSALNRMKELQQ
Described as above.

Another assay concerns the target T4, FLAG-OGDH (UniProt Q02218).
T4 sequence: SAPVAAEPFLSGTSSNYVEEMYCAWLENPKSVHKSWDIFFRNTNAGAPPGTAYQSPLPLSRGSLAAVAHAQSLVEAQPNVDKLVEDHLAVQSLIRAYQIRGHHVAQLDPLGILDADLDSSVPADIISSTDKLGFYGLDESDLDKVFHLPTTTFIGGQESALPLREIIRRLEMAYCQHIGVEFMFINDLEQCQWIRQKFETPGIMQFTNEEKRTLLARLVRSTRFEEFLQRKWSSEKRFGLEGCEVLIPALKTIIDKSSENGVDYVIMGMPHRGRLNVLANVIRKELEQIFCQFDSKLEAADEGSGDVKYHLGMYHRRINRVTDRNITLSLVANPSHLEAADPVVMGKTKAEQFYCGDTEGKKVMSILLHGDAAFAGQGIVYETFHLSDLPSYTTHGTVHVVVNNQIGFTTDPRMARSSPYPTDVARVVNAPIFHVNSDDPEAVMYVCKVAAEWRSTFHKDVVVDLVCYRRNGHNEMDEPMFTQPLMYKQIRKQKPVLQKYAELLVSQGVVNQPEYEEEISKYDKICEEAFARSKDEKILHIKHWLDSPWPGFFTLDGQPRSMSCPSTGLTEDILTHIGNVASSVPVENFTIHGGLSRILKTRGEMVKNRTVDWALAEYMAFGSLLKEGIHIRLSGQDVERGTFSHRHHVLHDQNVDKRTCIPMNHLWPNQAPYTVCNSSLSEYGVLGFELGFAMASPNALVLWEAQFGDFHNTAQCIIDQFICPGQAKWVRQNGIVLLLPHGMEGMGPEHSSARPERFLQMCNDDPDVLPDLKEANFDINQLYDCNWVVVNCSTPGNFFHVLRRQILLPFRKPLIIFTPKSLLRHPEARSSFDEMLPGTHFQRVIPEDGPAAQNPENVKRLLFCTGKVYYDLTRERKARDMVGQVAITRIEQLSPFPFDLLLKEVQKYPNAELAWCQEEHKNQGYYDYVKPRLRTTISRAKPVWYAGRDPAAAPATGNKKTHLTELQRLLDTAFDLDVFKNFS
Described as above.

The next assay deals with FLAG-FH (UniProt P07954). The description is as above.
Assay [1] deals with endogenous STAT5A of primary mouse hepatocytes (mouse (endogenous in primary mouse hepatocytes)) (UniProt P42230). Description: co-IP; endogenous proteins; anti-STAT5A antibody and Protein A/G beads, 4 °C overnight; lysates of 293T, HeLa, MIHA cells and primary mouse hepatocytes; control IgG.
The target of a further assay is T5, FLAG-DLAT (UniProt P10515).
T5 sequence: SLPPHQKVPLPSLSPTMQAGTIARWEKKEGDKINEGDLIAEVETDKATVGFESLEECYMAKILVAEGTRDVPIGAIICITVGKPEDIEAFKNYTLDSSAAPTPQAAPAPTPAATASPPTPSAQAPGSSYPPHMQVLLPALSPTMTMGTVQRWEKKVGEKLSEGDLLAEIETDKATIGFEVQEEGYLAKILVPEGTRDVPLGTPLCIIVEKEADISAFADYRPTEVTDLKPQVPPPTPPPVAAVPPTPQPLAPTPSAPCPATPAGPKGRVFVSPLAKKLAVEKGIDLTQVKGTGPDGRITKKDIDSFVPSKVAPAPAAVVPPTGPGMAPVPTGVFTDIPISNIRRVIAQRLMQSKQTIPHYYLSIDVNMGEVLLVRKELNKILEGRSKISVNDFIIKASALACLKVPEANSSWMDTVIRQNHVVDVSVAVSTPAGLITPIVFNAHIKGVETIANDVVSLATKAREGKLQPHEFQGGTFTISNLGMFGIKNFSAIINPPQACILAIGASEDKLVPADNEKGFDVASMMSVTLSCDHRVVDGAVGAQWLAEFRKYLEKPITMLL
Briefly: co-IP; parental, STAT5A-KO and reconstituted (STAT5A-WT, mito-STAT5A, STAT5A-4A) HeLa cells transiently transfected with DLAT-FLAG; whole-cell lysate, anti-FLAG antibody; endogenous subunits blotted; more subunits precipitated in STAT5A-KO cells.

No constants are given. Whether binding was seen depends on the method and setting. Binding seen in cells or lysates may run through a third protein. Some entries that bind do so weakly or less than the wild type. For some of these results: Where a sequence is shown, tags or fusion partners need not be part of it.

On to Myc–STAT5A (from UniProt P42229 1-794), for which the binding result in the assay with FLAG-IDH2, in the assay with FLAG-ALDOA, with FLAG-ACO2, with FLAG-OGDH and with FLAG-FH was “no binding” in each case.

B1: endogenous DLAT of primary mouse hepatocytes (protein, UniProt Q8BMF4 86-642)
chain: SLPPHQKVPLPSLSPTMQAGTIARWEKKEGEKISEGDLIAEVETDKATVGFESLEECYMAKILVPEGTRDVPVGSIICITVEKPQDIEAFKNYTLDLAAAAAPQAAPAAAPAPAAAPAAPSASAPGSSYPTHMQIVLPALSPTMTMGTVQRWEKKVGEKLSEGDLLAEIETDKATIGFEVQEEGYLAKILVPEGTRDVPLGAPLCIIVEKQEDIAAFADYRPTEVTSLKPQAAPPAPPPVAAVPPTPQPVAPTPSAAPAGPKGRVFVSPLAKKLAAEKGIDLTQVKGTGPEGRIIKKDIDSFVPSKAAPAAAAAMAPPGPRVAPAPAGVFTDIPISNIRRVIAQRLMQSKQTIPHYYLSVDVNMGEVLLVRKELNKMLEGKGKISVNDFIIKASALACLKVPEANSSWMDTVIRQNHVVDVSVAVSTPAGLITPIVFNAHIKGLETIASDVVSLASKAREGKLQPHEFQGGTFTISNLGMFGIKNFSAIINPPQACILAIGASEDKLIPADNEKGFDVASVMSVTLSCDHRVVDGAVGAQWLAEFKKYLEKPITMLL
Consider B1, for which, in assay [1], the binding result was “binds”.

B2: endogenous PDHA1 of primary mouse hepatocytes (protein, UniProt P35486 30-390)
chain: FANDATFEIKKCDLHRLEEGPPVTTVLTREDGLKYYRMMQTVRRMELKADQLYKQKIIRGFCHLCDGQEACCVGLEAGINPTDHLITAYRAHGFTFTRGLPVRAILAELTGRRGGCAKGKGGSMHMYAKNFYGGNGIVGAQVPLGAGIALACKYNGKDEVCLTLYGDGAANQGQIFEAYNMAALWKLPCIFICENNRYGMGTSVERAAASTDYYKRGDFIPGLRVDGMDILCVREATKFAAAYCRSGKGPILMELQTYRYHGHSMSDPGVSYRTREEIQEVRSKSDPIMLLKDRMVNSNLASVEELKEIDVEVRKEIEDAAQFATADPEPPLEELGYHIYSSDPPFEVRGANQWIKFKSVS
Consider B2, for which the binding result in assay [1] is reported as “binds”.

B3: endogenous DLD of primary mouse hepatocytes (protein, UniProt O08749 36-509)
chain: ADQPIEADVTVIGSGPGGYVAAIKSAQLGFKTVCIEKNETLGGTCLNVGCIPSKALLNNSHYYHMAHGKDFASRGIEIPEVRLNLEKMMEQKHSAVKALTGGIAHLFKQNKVVHVNGFGKITGKNQVTATKADGSTQVIDTKNILVATGSEVTPFPGITIDEDTIVSSTGALSLKKVPEKLVVIGAGVIGVELGSVWQRLGADVTAVEFLGHVGGIGIDMEISKNFQRILQRQGFKFKLNTKVTGATKKSDGKIDVSVEAASGGKAEVITCDVLLVCIGRRPFTQNLGLEELGIELDPKGRIPVNNRFQTKIPNIYAIGDVVAGPMLAHKAEDEGIICVEGMAGGAVHIDYNCVPSVIYTHPEVAWVGKSEEQLKEEGIEFKIGKFPFAANSRAKTNADTDGMVKILGHKSTDRVLGAHILGPGAGEMVNEAALALEYGASCEDIARVCHAHPTLSEAFREANLAAAFGKPINF
For B3, the binding result in assay [1] is on record as “binds”.

B4: endogenous PDHB of primary mouse hepatocytes (protein, UniProt Q9D051 31-359)
chain: VQLTVREAINQGMDEELERDEKVFLLGEEVAQYDGAYKVSRGLWKKYGDKRIIDTPISEMGFAGIAVGAAMAGLRPICEFMTFNFSMQAIDQVINSAAKTYYMSAGLQPVPIVFRGPNGASAGVAAQHSQCFAAWYGHCPGLKVVSPWNSEDAKGLIKSAIRDNNPVVMLENELMYGVAFELPAEAQSKDFLIPIGKAKIERQGTHITVVAHSRPVGHCLEAAAVLSKEGIECEVINLRTIRPMDIEAIEASVMKTNHLVTVEGGWPQFGVGAEICARIMEGPAFNFLDAPAVRVTGADVPMPYAKVLEDNSVPQVKDIIFAVKKTLNI
Regarding B4, the binding result in assay [1] is reported as “binds”.

B5: endogenous PDHB (protein, UniProt P11177 31-359)
chain: LQVTVRDAINQGMDEELERDEKVFLLGEEVAQYDGAYKVSRGLWKKYGDKRIIDTPISEMGFAGIAVGAAMAGLRPICEFMTFNFSMQAIDQVINSAAKTYYMSGGLQPVPIVFRGPNGASAGVAAQHSQCFAAWYGHCPGLKVVSPWNSEDAKGLIKSAIRDNNPVVVLENELMYGVPFEFPPEAQSKDFLIPIGKAKIERQGTHITVVSHSRPVGHCLEAAAVLSKEGVECEVINMRTIRPMDMETIEASVMKTNHLVTVEGGWPQFGVGAEICARIMEGPAFNFLDAPAVRVTGADVPMPYAKILEDNSIPQVKDIIFAIKKTLNI
For B5, the binding result in the assay with FLAG-DLAT is “binds”.
